Measured values from patent US20210156867A1 (YEDA RESEARCH AND DEVELOPMENT, published 2021).

Molecular target: T1, recombinant human B-cell lymphoma protein 2 alpha His-Tag (Bcl-2) (human, UniProt P10415)
T1 construct: In the assay it was in complex with the Ni-NTA sensor compound 5; also called His-Bcl-2; not shown: His-tag
Test: fluorescence displacement assay: emission of the His-Bcl-2-compound 5 sensor complex (200 nM) after adding 800 nM protein

T1 sequence (P10415 1-211 limits assumed): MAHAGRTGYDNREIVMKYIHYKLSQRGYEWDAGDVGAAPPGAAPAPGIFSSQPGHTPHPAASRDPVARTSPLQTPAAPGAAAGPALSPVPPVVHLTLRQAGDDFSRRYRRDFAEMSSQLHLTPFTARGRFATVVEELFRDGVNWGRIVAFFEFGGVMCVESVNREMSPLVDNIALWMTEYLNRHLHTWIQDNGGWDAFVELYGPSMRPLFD

B1: Avidin (other, chicken (hen), UniProt P02701 25-152, looked up)
avidin subunit: ARKCSLTGKWTNDLGSNMTIGAVNSRGEFTGTYITAVTATSNEIKESPLHGTQNTINKRTQPTFGFTVNWKFSESTTVFTGQCFIDRNGKEVLKTMWLLRSSVNDIGDDWKATRVGINIFTRLRTQKE
notes: from egg white; also called avidin from hen's egg white
Question: Does B1 bind?
Answer: Result: no binding (tested: 800 nM)
